Laboratory results published in the supplement of paper PMC11417369.
± gives the standard deviation of the averaged measurements. The list shows a part of the results.

Test system: PfAP2-I AP2 domain 3 (GST-tagged)
Experiment: gcPBM binding intensity (ln(normalized median fluorescence intensity)); higher = stronger DNA binding
Procedure, shortened: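 Probes on an Agilent 4 × 180k array were primer-extended, double-stranded and 36 bp long, taken from intergenic genomic regions, with negative controls added. GST-tagged P. falciparum DNA-binding domains from E. coli, about 25 μg on average, were applied to the array for 1 h in 1× PBS containing 1% milk, 0.2 mg/ml BSA, 0.5% salmon testes DNA and 0.03% Triton X-100. Binding intensity, obtained after Alexa488 anti-GST antibody detection and a 488 nm scan, is the highest Masliner-normalised natural-log median intensity across replicate spots of either probe orientation.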

| Sequence | gcPBM binding intensity (ln) |
| --- | --- |
| ACCACATTTTTTTTTGCATGTTGTTTAAAAAAAGGC [TGCATGCA_site137] | 7.97 ± 0.67 |
| TATATATTATATATATGTACATACTTTTTACGTTCA [XGTACX_site2493] | 7.83 ± 0.29 |
| TATTGTAATATTAGCACACATTACCTCACTACAAAT [CACACA_site5419] | 8.75 ± 0.35 |
| AACATGAAAATATATGCATTTGTATATATATATATA [TGCATGCA_negctrl_site16] | 9.25 ± 0.83 |
| AAAATACTAGATAGGGGAAAAAAAAAAAAAAAAAAA [CACACA_negctrl_site1732] | 8.19 ± 0.71 |
| AAAGCACCCATGCACACACACAAAGGAAAAGAAAAA [CACACA_site6249] | 8.32 ± 0.38 |
| ATAAATGATAAAATTGCATGTGAATGTGAAAATATT [TGCATGCA_site251] | 7.95 ± 0.73 |
| AATAAAACCCCGAAATCACACATTAAATGAAAAATA [CACACA_site4732] | 8.74 ± 0.89 |
| TGGGAAAATAATATTTATTTTATATATAAATATATA [CACACA_negctrl_site121] | 7.28 ± 0.32 |
| TAAAATAAAACAAACACACACACACGGACACAAAAA [CACACA_site7754] | 8.31 ± 0.3 |
| TTTTTTTTTTATTTTGCACACTTCTAATTTAGTTCT [CACACA_site5828] | 10.3 ± 0.13 |
| ATATAAATAAAATATACACACATACTGTTCATTTAA [CACACA_site7880] | 7.71 ± 0.49 |
| AAAAAAAAAAAAGATTGTACAGAATACTTTTAAAAT [XGTACX_site3576] | 7.54 ± 0.57 |
| AAGTTAATGAAAAAATGTACCCAGAGTATTTTAAAA [XGTACX_site2997] | 7.59 ± 0.57 |
| TTGTTTTTCTTTGAATGTACTTAATGATTTCCAATT [XGTACX_site2499] | 7.7 ± 0.59 |
| TCCATATATTTTAAAAGTACACATAAAAATTATTTA [XGTACX_site8127] | 8.055 ± 0.049 |
| AATGGAAAAATAGGCACACACACATATATACATATA [CACACA_site1298] | 7.98 ± 0.51 |
| GTTTCAAAATTAAACACACACAAAAAAAAAAAAAAA [CACACA_site2680] | 8.01 ± 0.42 |
| TATTATATCTTTATTATTCATCTAAAATTTGTATTT [TGCATGCA_negctrl_site233] | 7.52 ± 0.35 |
| CTATAACCTCTGTTCACACATATATCATAATTTACA [CACACA_site5446] | 8.04 ± 0.59 |
| TTTATTTTGATTTAATGTACAAATAGTAAAACAAAA [XGTACX_site4789] | 7.93 ± 0.33 |
| ACATTATATCTAAGTACACACATTAATTTTTTTTTT [CACACA_site7850] | 8.07 ± 0.35 |

| Sequence | gcPBM binding intensity (ln) |
| --- | --- |
| TATTTAAAAGCATATACACACAACTGGAATGAAAAG [CACACA_site6128] | 8.14 ± 0.77 |
| TATATAATATATATATGTACACATATACATTTTTAT [XGTACX_site2832] | 7.7 ± 0.3 |
| TTTTCGGATAATAATTGTACGAAACATTTAAAAAAA [XGTACX_site8898] | 7.63 ± 0.52 |
| TTGTAAGAAAAACACACACACACATATATATATATA [CACACA_site795] | 9.46 ± 0.41 |
| ACTCAAAATTATAATTGTACAAATGCTTTGTTTAAT [XGTACX_site3437] | 7.79 ± 0.49 |
| TAAATAGTTATAAAAGTGCAAAAAAAAAAAAAAAAA [GTGCAC_site9550] | 10.1 ± 0.53 |
| ATCATATATGTTATTACACACGTTATGTTATTATAA [CACACA_site2712] | 7.92 ± 0.43 |
| TATAATTTAGCTTGTGCATGCAGGTGCTACATTTGT [TGCATGCA_site217] | 9.92 ± 0.042 |
| TTAATTTCAAGTAGAAGTACTTTTATGATTGTGAGG [XGTACX_site1247] | 7.63 ± 0.47 |
| GTGCATAGATGATATACACACAATATAATAGTATGT [CACACA_site5373] | 9.48 ± 0.52 |
| AATTTAAAAGAAAAAGAAAAATAATAAACAGAAGCA [XGTACX_negctrl_site503] | 7.63 ± 0.76 |
| ATAAAACAAAAATATAAACACACATACATTGGTTTT [CACACA_site8809] | 7.9 ± 0.83 |
| ATAAAAAATAAATATATACATACATACATACATATA [XGTACX_negctrl_site507] | 7.46 ± 0.49 |
| TTTTCAAAAATATACACACACATAAATATAGGTATA [CACACA_site6506] | 7.71 ± 0.35 |
| TTGATTTACTATAGATGTACGTAAAATATAAATAAA [XGTACX_site8256] | 7.92 ± 0.26 |
| AATATATAAATAAATACACACATAAAATAGAAATAT [CACACA_site1663] | 8 ± 0.62 |
| AAAAACAAAAAAGAAGCACACATATATATATATATA [CACACA_site8779] | 9.62 ± 0.3 |
| CCTTATTATTATTTTACACACGTCCTAATAAGAGGA [CACACA_site1319] | 8.19 ± 0.63 |
| TATTTAAAAATATATACACACATTTTATATTATTAT [CACACA_site781] | 7.47 ± 0.41 |
| AATATTATATATATGGGTACTAATTCCTTTAATTTC [XGTACX_site102] | 7.45 ± 0.53 |
| TTTATCTGATATATTACACACAAAAAAAAAAAAAAA [CACACA_site7637] | 7.93 ± 0.79 |
| TATTTTACAAAATAAGGTACGTAAATATATGGTAGG [XGTACX_site2133] | 8.18 ± 0.64 |
